B1: CTLA4-Ig dimer (CTLA4-Ig dimer standard / CTLA4-Ig reference material) (Fc fusion)
chain: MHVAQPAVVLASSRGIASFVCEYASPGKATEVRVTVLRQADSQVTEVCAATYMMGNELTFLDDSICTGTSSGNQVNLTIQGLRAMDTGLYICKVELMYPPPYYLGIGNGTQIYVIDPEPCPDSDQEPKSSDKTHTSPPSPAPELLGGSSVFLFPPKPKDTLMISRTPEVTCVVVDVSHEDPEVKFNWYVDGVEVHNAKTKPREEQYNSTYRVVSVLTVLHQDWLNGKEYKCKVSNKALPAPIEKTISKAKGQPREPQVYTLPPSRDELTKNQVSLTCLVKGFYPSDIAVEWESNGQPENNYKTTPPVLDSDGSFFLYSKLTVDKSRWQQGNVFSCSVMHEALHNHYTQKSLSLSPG
modifications: glycosylated: N-linked at Asn102, Asn134, Asn233 and O-linked at Ser155/156, Ser165 (numbering of SEQ ID NO:2)
notes: also called CTLA4-Ig material; CLTA4-Ig dimer standard
B2: CTLA4-Ig dimer purified from the HIC cleaning peak (Fc fusion)
chain: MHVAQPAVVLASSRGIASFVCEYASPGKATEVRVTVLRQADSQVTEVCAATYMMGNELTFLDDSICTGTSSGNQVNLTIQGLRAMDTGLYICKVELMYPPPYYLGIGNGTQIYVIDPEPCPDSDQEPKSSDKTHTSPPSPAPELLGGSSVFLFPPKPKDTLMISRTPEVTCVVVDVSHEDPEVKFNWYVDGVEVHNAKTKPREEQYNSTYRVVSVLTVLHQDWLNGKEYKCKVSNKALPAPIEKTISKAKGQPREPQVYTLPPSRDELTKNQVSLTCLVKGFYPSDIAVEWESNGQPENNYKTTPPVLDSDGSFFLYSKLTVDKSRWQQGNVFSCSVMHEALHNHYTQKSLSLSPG
modifications: glycosylated; sialic acid content low compared to CTLA4-Ig dimer
notes: Same polypeptide as m1, but a separate preparation (SEC fraction of the Protein A eluate of the HIC cleaning peak); also called purified dimer
B3: CTLA4-Ig tetramer (purified from HIC cleaning peak) (Fc fusion)
chain: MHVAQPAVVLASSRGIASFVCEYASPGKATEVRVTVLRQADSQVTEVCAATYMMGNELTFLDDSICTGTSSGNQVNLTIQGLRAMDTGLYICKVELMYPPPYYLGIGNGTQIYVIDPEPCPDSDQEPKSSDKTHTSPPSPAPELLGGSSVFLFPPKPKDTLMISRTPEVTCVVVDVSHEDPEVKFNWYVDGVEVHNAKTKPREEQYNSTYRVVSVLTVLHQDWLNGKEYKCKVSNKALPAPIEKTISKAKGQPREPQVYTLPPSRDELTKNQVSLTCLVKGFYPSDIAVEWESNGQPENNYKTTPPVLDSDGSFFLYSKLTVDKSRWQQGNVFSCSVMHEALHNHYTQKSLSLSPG
modifications: glycosylated; lower sialic acid than the dimer
notes: Two covalent dimers associated non-covalently; Isolated by Protein A chromatography and preparative SEC of the HIC cleaning peak
B4: CTLA4-Ig hexamer (hexamer/multimer fraction of HIC cleaning peak) (Fc fusion)
chain: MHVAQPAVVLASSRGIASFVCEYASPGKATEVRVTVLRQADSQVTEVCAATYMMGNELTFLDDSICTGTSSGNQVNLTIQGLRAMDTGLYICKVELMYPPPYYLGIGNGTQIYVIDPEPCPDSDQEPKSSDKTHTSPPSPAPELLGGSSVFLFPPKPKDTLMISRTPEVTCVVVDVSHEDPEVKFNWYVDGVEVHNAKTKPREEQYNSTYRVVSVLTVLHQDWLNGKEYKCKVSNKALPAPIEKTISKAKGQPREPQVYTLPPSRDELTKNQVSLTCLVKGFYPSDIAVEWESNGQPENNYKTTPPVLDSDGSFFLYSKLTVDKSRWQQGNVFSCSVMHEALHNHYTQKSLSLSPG
modifications: glycosylated
B5: Dimerized tetramer (CTLA4-Ig tetramer converted to dimer by guanidine treatment) (Fc fusion)
chain: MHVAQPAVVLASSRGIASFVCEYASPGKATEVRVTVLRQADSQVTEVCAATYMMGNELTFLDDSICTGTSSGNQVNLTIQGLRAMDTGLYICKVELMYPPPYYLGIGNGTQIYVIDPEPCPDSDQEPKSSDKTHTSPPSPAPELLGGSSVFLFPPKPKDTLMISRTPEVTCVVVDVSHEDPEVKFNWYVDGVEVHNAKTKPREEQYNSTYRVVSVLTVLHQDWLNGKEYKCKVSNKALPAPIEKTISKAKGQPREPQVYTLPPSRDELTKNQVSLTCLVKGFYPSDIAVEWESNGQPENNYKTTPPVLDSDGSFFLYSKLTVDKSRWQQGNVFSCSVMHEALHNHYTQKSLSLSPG
modifications: glycosylated
notes: Tetramer from the HIC cleaning peak, treated with guanidine and dialysed into phosphate buffer; also called guanidine-treated CTLA4-Ig dimer; tetramer which was disaggregated

Biological target: T1, B7-1Ig (CD80-Ig fusion protein) (UniProt P33681 35-242, limits assumed)
T1 construct: also called B7Ig; not shown: immunoglobulin (Ig) portion
T1 sequence (looked up): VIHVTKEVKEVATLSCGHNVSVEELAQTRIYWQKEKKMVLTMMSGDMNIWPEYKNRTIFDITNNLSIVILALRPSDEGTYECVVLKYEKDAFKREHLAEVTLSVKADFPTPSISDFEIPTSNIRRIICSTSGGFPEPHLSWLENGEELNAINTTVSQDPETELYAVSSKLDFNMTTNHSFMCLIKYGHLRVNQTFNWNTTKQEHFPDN
Assay: SPR kinetics (Biacore), 75-200 nM analyte over B7-1Ig chip (694 RU)
Method: In Table 11, sample concentrations of 75-200 nM were tested on B7-1Ig chip (694 RU).

Row | Binder | Ka [M⁻¹] | Kd [µM] | kon [M⁻¹ s⁻¹] | koff [s⁻¹]
1 | B1 | 4.18e+07 | 0.0239 | 403000 | 
2 | B2 | 2.59e+07 | 0.0387 | 152000 | 0.00588
3 | B3 | 2.04e+07 | 0.0489 | 165000 | 0.00807
4 | B4 | 1.25e+07 | 0.0799 | 154000 | 0.0123
5 | B5 | 3.16e+07 | 0.0317 | 312000 | 0.00988

Biological target: T1, B7-1Ig (CD80-Ig fusion protein)
Assay: SPR (Biacore), mass transfer limited conditions on high-density B7-1Ig chip

Row | Binder | initial binding rate relative to CTLA4-Ig dimer
6 | B3 | ~0.8 fold of the dimer's rate

Source: patent publication US20190062399A1 (Bristol-Myers Squibb, published 2019)
